Assay results reported in the supplement of paper PMC10126150.
Values marked as one replicate rest on one cluster of the flow cell; about a third of the high ones do not repeat.

System: ATP
Assay: switch fluorescence ratio, 500 uM ATP over buffer (Cy3 cluster intensity, sum of 5 cycles each) (fold (ratio)); higher = stronger signal-on switching upon ATP binding; sequences stand for … in TCGTCGGCAGCGTCAGATGTGTATAAGAGACAGTTTTTTTTTTTTTTTTTTTTTTTTT…TC
Conditions: aptamer strand: ATP DNA aptamer (quencher-CACCTGGGGGAGTATTGCGGAGGAAGG + anchor), 100 nM annealed; ATP concentration: 500 uM; one replicate
Outline: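 The quencher-labelled ATP aptamer, at 100 nM, was annealed to Cy3-labelled switching-strand clusters on a modified Illumina MiSeq flow-cell. The clusters were imaged in selection buffer, then after 15 min with 500 uM ATP at 22 °C, and this buffer/ATP cycle ran five times with NaOH stripping and re-annealing between runs. Per-cluster fluorescence ratios, summed target-cycle over summed buffer-cycle Cy3 intensity, were averaged per switch-domain sequence. Clusters outside 100-1000 RFU were excluded.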
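Also: ATP exposure 15 min at 22 °C before imaging.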

Row | Sequence | switch fluorescence ratio
1 | CAGCTAGTGC | 1.12
2 | CAATGGGCGG | 1.02
3 | TTCGGACAGT | 1.04
4 | TGGGGGGTA | 1.02
5 | TTCGTTTGAG | 1.01
6 | CCATAATTAG | 0.932
7 | TCGGCAACTC | 1.95
8 | CCGTTCTT | 0.947
9 | AAGCGTACTC | 1.86
10 | TATTAGGGC | 0.947
11 | CTTGGTTTTA | 1.28
12 | AACATGGGTG | 0.981
13 | GACAGGATTT | 1
14 | TTAGATTTTG | 1
15 | TTTTCCCTGA | 0.994
16 | TTCTGAGTCG | 1.03
17 | GGGCGTCCT | 1.04
18 | CTTCTCATAC | 3.01
19 | TATTACAG | 1.01
20 | GTAATACGGG | 1.39
21 | TAGTAGCTCG | 1.03
22 | TTGAGGTT | 0.95
23 | ATTCTTACTG | 1.05
24 | GTGAAGATAG | 0.987
25 | ATCTGTGGCG | 0.948
26 | TTGAGTGCAA | 0.966

Row | Sequence | switch fluorescence ratio
27 | GGTCGCCAGC | 1.01
28 | ACGTGCAGTA | 1.05
29 | AAACTCTTTC | 1.28
30 | CTGCAGTCTG | 1.04
31 | TAGCCCAAGA | 1.03
32 | TTCGCTGGAA | 5.37
33 | TGCGAGAGTC | 0.963
34 | AGAGGACATT | 1.03
35 | ACTGGCGGGG | 0.998
36 | GGGGTTGCTT | 1.01
37 | CGTGATTGG | 0.997
38 | ATACGATGGT | 1.04
39 | AAAGTATTA | 1.13
40 | CGATTTCGGC | 0.926
41 | TGAGGTCTGC | 1.01
42 | TAGCTGGGTC | 1
43 | TTGGGGAACT | 1.05
44 | TGCTTACCAG | 1.03
45 | ATATAGCCGC | 1.06
46 | AAGTCACGCG | 1
47 | CTAGATAAAT | 1
48 | TATCGCAGGG | 1.06
49 | TAACGTAAAA | 1.09
50 | AAGCTGAGGA | 0.99
51 | TTAGGTCCGT | 0.955
52 | TAGAGGTGAC | 1.04

Row | Sequence | switch fluorescence ratio
53 | AAAGGTACCA | 1.06
54 | GGGATTCGC | 1.03
55 | ATGCGGAAC | 1.09
56 | TCCGCACTCA | 1.4
57 | TCAGCAGTAT | 1.48
58 | AAAATGCGTC | 0.932
59 | CAGCTAGCTC | 1.01
60 | AGATTCTGGA | 0.976
61 | AAGAAGCCTT | 0.966
62 | TTGGTTGCGT | 1.03
63 | CTTCGGGTTC | 1.01
64 | GTTAGATCAT | 0.969
65 | TGGACCATAC | 1.32
66 | CGAGAGATTT | 1.02
67 | TTACATTTAC | 1.25
68 | CGTTCGGCGC | 1.05
69 | AACTAATCTA | 1.02
70 | TGGGGAGGCC | 1.15
71 | CGATAGGACA | 0.997
72 | TATTGGTACC | 0.974
73 | GATCAGCCTA | 0.959
74 | CGCTTCTGTT | 1
75 | GATGTATTTC | 0.95
76 | GGCTTGCCTG | 0.997
77 | CCATTTCAAC | 1.04
78 | ACAAACAGC | 1.11

Row | Sequence | switch fluorescence ratio
79 | ATGTAAAACG | 0.956
80 | ATTTTCTTGG | 0.994
81 | CACGTACATT | 1.41
82 | CTTAGCACTG | 1.02
83 | TTCATACGTC | 1.08
84 | ACTATGGACA | 0.941
85 | CAATGTCTG | 0.988
86 | TTTAAATAAT | 0.979
87 | CTCAGCAGTG | 1.33
88 | CGGCGTGACA | 0.981
89 | CAACGGTTTA | 1.04
90 | ATATCCCAGC | 1.02
91 | GGCGCGCGAA | 0.966
92 | ACGAGTTATT | 0.981
93 | AACTCGTTTC | 1.05
94 | AGACACGGCG | 0.971
95 | AGGAATCCTA | 1.03
96 | CGGGCACGGC | 1.02
97 | AGTGGGCATG | 1.02
98 | AGATTTTAAG | 0.976
99 | CGACGTTAAG | 0.959
100 | GATTGTTGAC | 1.03
101 | TATAAGCTGC | 1.04
102 | ACATCCACGG | 1.43
103 | GATTACCCCA | 1.04
104 | TTTTACAA | 0.984

Row | Sequence | switch fluorescence ratio
105 | GTGGTACGCT | 0.965
106 | GGTACTGGCT | 1.02
107 | TACGGTTCTG | 0.993
108 | GAACAATCGA | 1
109 | GCTCTGCTAA | 1.35
110 | TTGAGGGAAG | 1.01
111 | GGAACATGAT | 0.976
112 | GGCATATGGA | 1.03
113 | TGTCGTAGTT | 0.971
114 | AGAAGCGGGT | 0.983
115 | CATTCCAGTA | 0.993
116 | CATCTGCAGG | 1.99
117 | TCGTCTATCG | 0.976
118 | AGCCACCAAT | 1.03
119 | TTTCCGTAAG | 1.06
120 | GTCAGATGTC | 0.933
121 | TTTTTGATGC | 1.02
122 | GGCCTCCCCC | 1.35
123 | GAAAAGGACT | 1.01
124 | CAAGCCAGG | 1.21
125 | CTAACCTTTG | 1.03
126 | GACAACGGCT | 1.13
127 | CCGCTATCGG | 1.61
128 | GCAAGAGGTA | 1.03
129 | TGGCCGAGCA | 1.05
130 | TGATGTATGG | 1.04

Row | Sequence | switch fluorescence ratio
131 | CTCCAAAAT | 3.48
132 | ACGAAGACCG | 0.944
133 | GACAATTAGG | 1.01
134 | CCTACGGGAA | 1.13
135 | GTTTTATGTC | 1.02
136 | ACTCCTTAGA | 1.1
137 | GACTATCAAG | 1.02
138 | TTAGTGGAGC | 0.96
139 | TGTCATTTCT | 1.03
140 | TGAAGCGGGG | 1.01
141 | GTGTTACCTC | 0.986
142 | CGTATAGATT | 0.961
143 | AAGCACATTG | 1.08
144 | TATATTATG | 0.985
145 | TGCATAGGC | 2.07
146 | TTGGTTTATT | 0.994
147 | CGGTTCTTAA | 0.968
148 | TCTGCACGTG | 1.04
149 | GGCAGTTAGA | 1.03
150 | TACGTCGATG | 1.01
151 | CGTGATGTTA | 1.05
152 | TCGATAGGTG | 1.06
153 | ATGGCTGAAC | 1.09
154 | TCATGAATGG | 1.01
155 | TTCCCATATG | 1.53
156 | TGTTGTTCTA | 1.02

Row | Sequence | switch fluorescence ratio
157 | CCTAATGGCA | 0.968
158 | AAATGTCTGC | 0.993
159 | GTATAAGATA | 1.02
160 | GTTTTAGTGA | 1.03
161 | GAGTAGTAGC | 0.959
162 | GGTTACATGA | 1.03
163 | AGAGGCATGT | 0.966
164 | CCACAGCCCG | 1.12
165 | TTCAAGCAG | 1.02
166 | GAATTGGGAC | 1.01
167 | TCACCGGTC | 1.11
168 | ATTAGCCCTG | 0.972
169 | ATCAACTCAC | 1.16
170 | TATAATACGA | 1.1
171 | GGCGCCCGTC | 0.994
172 | TATCAAGTTT | 1.01
173 | AGACAGACAC | 1.14
174 | CAATGCTCAA | 1.08
175 | CACAAAGGA | 1.02
176 | CCGTGACTCT | 1.09
177 | TGCAGCATGG | 1.16
178 | GGACTACCTA | 1.1
179 | TAAATTGGAC | 1.06
180 | AAAATAGAGT | 1
181 | ATTCGATTGG | 0.998
182 | CAGAGGGATA | 3.13

Row | Sequence | switch fluorescence ratio
183 | AAGGGGGTCG | 0.862
184 | ACGGTATAGC | 1.07
185 | GATTTTAAGC | 1.01
186 | GCCCAGTTGT | 1.77
187 | GGCGTTATGA | 1.03
188 | AGAGACGCAA | 5.56
189 | CCATTCGGCA | 1.07
190 | TAGGTGGGAG | 0.99
191 | GGGGAACTTG | 0.98
192 | ACACAACGCG | 1.07
193 | GGCTTGAGGT | 0.956
194 | GCACAGGGCG | 1
195 | TACGCCTAGG | 1.09
196 | CCGGGTTCAT | 1.04
197 | ATTAACCGGG | 1.09
198 | CTTCTAAGAG | 0.972
199 | GATATTCAA | 0.941
200 | CCCTTCGGAG | 1.16
201 | CGACAGCTGG | 1.04
